Laboratory results published in PMC9911399, “Two distinct binding modes provide the RNA-binding protein RbFox with extraordinary sequence specificity”.
Positions count from the first letter of the chain named. This is one part of the list.

T1: RBFOX1 RRM (Homo sapiens, UniProt Q9NWB1 109-208)
T1 sequence: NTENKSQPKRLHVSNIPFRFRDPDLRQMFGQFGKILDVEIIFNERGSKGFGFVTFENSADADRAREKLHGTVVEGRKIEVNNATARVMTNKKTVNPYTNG

B1: UUUCUUA (DNA:RNA)
RNA: GGGAGACCGGAAUUCAGAUUGUCCUUUCUUAUUAAAUCCCGUCGUAGCCACCA
DNA 1: CAATCTGAATTCCGGTCTCCC
DNA 2: TGGTGGCTACGACGGGATT
B2: UAUUAUG (DNA:RNA)
RNA: B1 RNA with U26A, C28U, U29A, A31G
DNA 1: CAATCTGAATTCCGGTCTCCC
DNA 2: TGGTGGCTACGACGGGATT
B3: UUCCCGU (DNA:RNA)
RNA: B1 RNA with U27C, U29C, U30G, A31U
DNA 1: CAATCTGAATTCCGGTCTCCC
DNA 2: TGGTGGCTACGACGGGATT
B4: UCGUUCG (DNA:RNA)
RNA: B1 RNA with U26C, U27G, C28U, U30C, A31G
DNA 1: CAATCTGAATTCCGGTCTCCC
DNA 2: TGGTGGCTACGACGGGATT
B5: CCUGCAG (DNA:RNA)
RNA: B1 RNA with U25C, U26C, C28G, U29C, U30A, A31G
DNA 1: CAATCTGAATTCCGGTCTCCC
DNA 2: TGGTGGCTACGACGGGATT
B6: GCUAUUA (DNA:RNA)
RNA: B1 RNA with U25G, U26C, C28A
DNA 1: CAATCTGAATTCCGGTCTCCC
DNA 2: TGGTGGCTACGACGGGATT
B7: CAAAGGG (DNA:RNA)
RNA: GGGAGACCGGAAUUCAGAUUGUCCCAAAGGGUUAAAUCCCGUCGUAGCCACCA
DNA 1: CAATCTGAATTCCGGTCTCCC
DNA 2: TGGTGGCTACGACGGGATT
B8: AUGUCGG (DNA:RNA)
RNA: B7 RNA with C25A, A26U, A27G, A28U, G29C
DNA 1: CAATCTGAATTCCGGTCTCCC
DNA 2: TGGTGGCTACGACGGGATT
B9: UCAUUGC (DNA:RNA)
RNA: B7 RNA with C25U, A26C, A28U, G29U, G31C
DNA 1: CAATCTGAATTCCGGTCTCCC
DNA 2: TGGTGGCTACGACGGGATT
B10: UAACUGA (DNA:RNA)
RNA: B1 RNA with U26A, U27A, U30G
DNA 1: CAATCTGAATTCCGGTCTCCC
DNA 2: TGGTGGCTACGACGGGATT
B11: CCCGAUG (DNA:RNA)
RNA: B7 RNA with A26C, A27C, A28G, G29A, G30U
DNA 1: CAATCTGAATTCCGGTCTCCC
DNA 2: TGGTGGCTACGACGGGATT
B12: AAACACU (DNA:RNA)
RNA: B7 RNA with C25A, A28C, G29A, G30C, G31U
DNA 1: CAATCTGAATTCCGGTCTCCC
DNA 2: TGGTGGCTACGACGGGATT
B13: UGUAGGC (DNA:RNA)
RNA: B7 RNA with C25U, A26G, A27U, G31C
DNA 1: CAATCTGAATTCCGGTCTCCC
DNA 2: TGGTGGCTACGACGGGATT
B14: UUGCAAC (DNA:RNA)
RNA: B1 RNA with U27G, U29A, U30A, A31C
DNA 1: CAATCTGAATTCCGGTCTCCC
DNA 2: TGGTGGCTACGACGGGATT
B15: UCAGCAC (DNA:RNA)
RNA: B7 RNA with C25U, A26C, A28G, G29C, G30A, G31C
DNA 1: CAATCTGAATTCCGGTCTCCC
DNA 2: TGGTGGCTACGACGGGATT
B16: AUUUUAU (DNA:RNA)
RNA: B1 RNA with U25A, C28U, U30A, A31U
DNA 1: CAATCTGAATTCCGGTCTCCC
DNA 2: TGGTGGCTACGACGGGATT
B17: CUCCACU (DNA:RNA)
RNA: B1 RNA with U25C, U27C, U29A, U30C, A31U
DNA 1: CAATCTGAATTCCGGTCTCCC
DNA 2: TGGTGGCTACGACGGGATT
B18: ACAUCAU (DNA:RNA)
RNA: B7 RNA with C25A, A26C, A28U, G29C, G30A, G31U
DNA 1: CAATCTGAATTCCGGTCTCCC
DNA 2: TGGTGGCTACGACGGGATT
B19: AUCAUAU (DNA:RNA)
RNA: B1 RNA with U25A, U27C, C28A, U30A, A31U
DNA 1: CAATCTGAATTCCGGTCTCCC
DNA 2: TGGTGGCTACGACGGGATT
B20: CGUAUUC (DNA:RNA)
RNA: B1 RNA with U25C, U26G, C28A, A31C
DNA 1: CAATCTGAATTCCGGTCTCCC
DNA 2: TGGTGGCTACGACGGGATT
B21: GGUACGU (DNA:RNA)
RNA: B7 RNA with C25G, A26G, A27U, G29C, G31U
DNA 1: CAATCTGAATTCCGGTCTCCC
DNA 2: TGGTGGCTACGACGGGATT
B22: GUGAAUU (DNA:RNA)
RNA: B1 RNA with U25G, U27G, C28A, U29A, A31U
DNA 1: CAATCTGAATTCCGGTCTCCC
DNA 2: TGGTGGCTACGACGGGATT
B23: GCCAUGU (DNA:RNA)
RNA: B7 RNA with C25G, A26C, A27C, G29U, G31U
DNA 1: CAATCTGAATTCCGGTCTCCC
DNA 2: TGGTGGCTACGACGGGATT
B24: GGGCAUG (DNA:RNA)
RNA: B1 RNA with U25G, U26G, U27G, U29A, A31G
DNA 1: CAATCTGAATTCCGGTCTCCC
DNA 2: TGGTGGCTACGACGGGATT
B25: GUACGGU (DNA:RNA)
RNA: B7 RNA with C25G, A26U, A28C, G31U
DNA 1: CAATCTGAATTCCGGTCTCCC
DNA 2: TGGTGGCTACGACGGGATT
B26: GUAGCCU (DNA:RNA)
RNA: B7 RNA with C25G, A26U, A28G, G29C, G30C, G31U
DNA 1: CAATCTGAATTCCGGTCTCCC
DNA 2: TGGTGGCTACGACGGGATT
B27: UGAGGUC (DNA:RNA)
RNA: B7 RNA with C25U, A26G, A28G, G30U, G31C
DNA 1: CAATCTGAATTCCGGTCTCCC
DNA 2: TGGTGGCTACGACGGGATT
B28: GCCCGGA (DNA:RNA)
RNA: B7 RNA with C25G, A26C, A27C, A28C, G31A
DNA 1: CAATCTGAATTCCGGTCTCCC
DNA 2: TGGTGGCTACGACGGGATT
B29: GGCUGUA (DNA:RNA)
RNA: B1 RNA with U25G, U26G, U27C, C28U, U29G
DNA 1: CAATCTGAATTCCGGTCTCCC
DNA 2: TGGTGGCTACGACGGGATT
B30: ACCAUAU (DNA:RNA)
RNA: B7 RNA with C25A, A26C, A27C, G29U, G30A, G31U
DNA 1: CAATCTGAATTCCGGTCTCCC
DNA 2: TGGTGGCTACGACGGGATT
B31: AAAGUUA (DNA:RNA)
RNA: B1 RNA with U25A, U26A, U27A, C28G
DNA 1: CAATCTGAATTCCGGTCTCCC
DNA 2: TGGTGGCTACGACGGGATT

The binders below were run against T1, RBFOX1 RRM (assay: EMSA; HiTS-Eq, 1 nM pool, 10 min; buffer printed only for the single-RNA assays: 10 mM Tris pH 7.5, 150 mM NaCl, 3.4 mM EDTA, 0.001% NP-40, 30 C). Settings: tags: His6 N-terminal (pET28a); label: 5' 32P.
How it was run: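 Purified wild-type or mutant RbFox RRM at increasing concentrations was equilibrated with 1 nM of 5′-radiolabelled RNA carrying 7 randomized nucleotides for 10 min in 50 µL. Unbound RNA was separated by 8% native PAGE and sequenced. Relative association constants came from read-count changes of each RNA species compared with the control reaction, normalised to the cognate motif.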

Row | Binder | binding signal
1 | B1 | 0.0046 KA relative to UGCAUGU
2 | B2 | 0.0115 KA relative to UGCAUGU
3 | B3 | 0.00458 KA relative to UGCAUGU
4 | B4 | 0.0211 KA relative to UGCAUGU
5 | B5 | 0.014 KA relative to UGCAUGU
6 | B6 | 0.00365 KA relative to UGCAUGU
7 | B7 | 0.00628 KA relative to UGCAUGU
8 | B8 | 0.0196 KA relative to UGCAUGU
9 | B9 | 0.0115 KA relative to UGCAUGU
10 | B10 | 0.0111 KA relative to UGCAUGU
11 | B11 | 0.00929 KA relative to UGCAUGU
12 | B12 | 0.00096 KA relative to UGCAUGU
13 | B13 | 0.014 KA relative to UGCAUGU
14 | B14 | 0.0154 KA relative to UGCAUGU
15 | B15 | 0.00795 KA relative to UGCAUGU
16 | B16 | 0.00281 KA relative to UGCAUGU

Row | Binder | binding signal
17 | B17 | 0.00344 KA relative to UGCAUGU
18 | B18 | 0.000193 KA relative to UGCAUGU
19 | B19 | 0.00066 KA relative to UGCAUGU
20 | B20 | 0.0066 KA relative to UGCAUGU
21 | B21 | 0.0141 KA relative to UGCAUGU
22 | B22 | 0.0128 KA relative to UGCAUGU
23 | B23 | 0.0117 KA relative to UGCAUGU
24 | B24 | 0.519 KA relative to UGCAUGU
25 | B25 | 0.00854 KA relative to UGCAUGU
26 | B26 | 0.00648 KA relative to UGCAUGU
27 | B27 | 0.0144 KA relative to UGCAUGU
28 | B28 | 0.0142 KA relative to UGCAUGU
29 | B29 | 0.0154 KA relative to UGCAUGU
30 | B30 | 0.00164 KA relative to UGCAUGU
31 | B31 | 0.00214 KA relative to UGCAUGU
